Measured values as given in the supplement of paper PMC3334620.
The full ranking holds about 33,000 sequences; the median of “E-score (-0.5 to 0.5)” is about -0.012, and the highest 2% start at about 0.27. This is one part of the list.

Biological target: T1, Vhr1 (UniProt P40522)
T1 sequence: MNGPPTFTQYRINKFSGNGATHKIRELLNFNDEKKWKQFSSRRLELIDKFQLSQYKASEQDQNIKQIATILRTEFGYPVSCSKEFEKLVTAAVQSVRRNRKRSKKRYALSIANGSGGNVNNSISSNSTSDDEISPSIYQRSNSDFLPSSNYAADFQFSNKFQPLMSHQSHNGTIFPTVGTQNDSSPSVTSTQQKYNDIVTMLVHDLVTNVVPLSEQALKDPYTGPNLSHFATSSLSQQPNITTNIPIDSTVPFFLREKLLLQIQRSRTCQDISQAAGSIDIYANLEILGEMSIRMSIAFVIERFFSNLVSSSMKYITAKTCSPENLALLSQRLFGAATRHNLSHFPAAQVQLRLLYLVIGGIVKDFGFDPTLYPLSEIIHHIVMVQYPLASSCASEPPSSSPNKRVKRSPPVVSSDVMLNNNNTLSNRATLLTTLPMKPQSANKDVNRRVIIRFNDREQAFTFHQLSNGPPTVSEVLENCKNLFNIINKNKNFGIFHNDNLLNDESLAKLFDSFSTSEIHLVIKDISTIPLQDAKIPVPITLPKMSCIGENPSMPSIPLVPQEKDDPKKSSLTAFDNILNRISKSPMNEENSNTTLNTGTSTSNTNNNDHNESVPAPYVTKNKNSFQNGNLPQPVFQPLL
Experiment: PBM E-score (8-mer binding enrichment) (E-score (-0.5 to 0.5)); higher = stronger / more preferred TF binding; most listed sequences are background and not binding sites
Conditions: protein concentration: 200 nM; construct: GST-full length
Procedure, shortened: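 Yeast transcription factors carrying a GST tag, as full-length proteins or DNA-binding domains, were produced by PURExpress in vitro transcription/translation. About 100-200 nM protein was applied to universal all-10-mer Agilent arrays, double-stranded by primer extension on fresh or once-stripped slides. Bound protein was detected with fluorescent anti-GST, and scans were normalised with masliner. The Universal PBM Analysis Suite gave each ungapped eight-base word, pooled with its reverse complement, an E-score, a modified Wilcoxon-Mann-Whitney statistic.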

Sequence	PBM E-score
GACCTACC	0.0703
CCGACTCA	0.417
CAAGAGTA	0.167
GAGACCAC	0.153
CGATCGGA	-0.165
AGTTTGTA	-0.00087
AATCGAAA	-0.152
GCAACGAC	-0.0341
CTCATGTA	0.183
AAAGCGGG	-0.196
CGCGACTC	0.449
TATAGAGA	-0.326
CGTGACAC	0.204
AGCAGATG	-0.0657
CCATTTCA	-0.201
GCCCCTTA	-0.0306
GCCCTAAA	-0.37
ACTCTTCG	-0.0779
ACCAAACG	0.142
ACTCCAGT	0.121
GAGTTTAC	-0.096
CTACTGTC	0.135
ACTAACAT	0.148

Sequence	PBM E-score
AGTACGAG	0.146
AACGGCGT	-0.058
CGACTTAG	-0.0762
GCTAACTA	0.0567
GAGTTCGA	0.0304
AATCGGGG	-0.0108
AATATAGC	0.105
AGAAGAAA	-0.201
GCTAGCAA	-0.173
CGCGGGGC	0.00689
CAGCCGCC	0.149
ACTAGAGC	-0.134
ACATAGGA	-0.0621
GCTCTCGA	-0.0152
GAGGTCCC	-0.0898
AATTATCG	0.0253
TGCGCACA	0.0633
TACTAGTA	0.0954
ATATTACC	0.213
AGCCTAGC	-0.0849
AACCCTCT	-0.256
AGACCCGA	0.162
CCGCGTCA	-0.07

Sequence	PBM E-score
AATCGAAG	0.156
CAATCCTG	0.122
CACTCCGG	0.27
ATGGCTGA	0.108
CGCCGGAC	-0.0925
CCGATGCC	-0.115
ATTTGCGG	-0.0102
TAGCGAGA	-0.0364
AACCCGAA	-0.016
TGCTACCA	-0.0491
CTACACTC	0.149
ACCTCTTG	-0.0906
TAGCACGA	-0.101
CCGGGTAC	0.089
CTCACCCA	0.342
ATTAGACC	-0.0612
CCGCAAAA	-0.114
CAACGACC	0.0847
GTGGGAAA	0.00896
AGGACCCC	-0.175
CGGGCCCA	-0.136
CCGATTCA	0.00961
ACAACTTC	-0.0115

Sequence	PBM E-score
CGGCCTCA	0.024
GAATTAGA	-0.172
ACACTTTG	-0.0809
GCTGCAAA	-0.127
TTATGAAA	0.0627
AGCTCGTC	-0.119
GACTATCC	0.242
ATTAGTAG	-0.0213
GCCACGGA	0.00457
AACAACTT	-0.0839
CTCCCATC	0.154
CAGAGACA	-0.151
ACACCTCT	0.128
GACTGGGC	0.0779
GAATACTC	0.0679
ACGTGGGG	-0.242
ATACGAGA	-0.189
CGATCTGC	0.0306
GCGAGGTA	-0.113
GTCGATGA	0.119
CCGAGGCC	0.0312
CAACTGTC	-0.0789
ATACTTCC	-0.079

Sequence	PBM E-score
CCTCTAGA	-0.178
ATACTTGC	0.102
GCGAGTAC	0.174
AGTCAGCA	0.346
ACAGGGGA	-0.0503
CCTTGTCC	-0.053
TACGTGGA	-0.106
CGTTGAAG	-0.182
CTCTGCTC	-0.00466
AGCTTAAT	0.0391
GATCTGTA	0.0606
GTATCTGA	0.113
AGGTCATG	0.136
CCGTGACA	0.192
AGGCTTTG	-0.177
CGGGTGGC	0.064
CTCCCGGC	0.119
AAACGTCT	-0.147
CGTTGTCA	-0.00706
AAGTGGAT	0.0246
AGGTCAGA	-0.145
ATGCTCGG	-0.0409
TTAGTCAA	0.168

Sequence	PBM E-score
CCTGGTGC	0.0619
GCGGAGGA	-0.181
AAACGGAA	-0.11
ACGCGTGG	0.199
CCAGACGC	-0.029
CAACTAAC	0.202
CCTATGGA	-0.0875
ATGTGTAC	0.263
ATGAGCTG	0.0111
AGCACTAC	0.0499
ACCCTGCG	0.06
AAGTGCCT	-0.273
CAACCGGC	0.0597
ATTAGCTA	0.0108
ATTCGCCC	0.0149
ATAGCGCC	0.0931
CAAGCAGA	-0.138
AACCTAAC	-0.149
AAGGTGGG	-0.012
TGCCCAAA	-0.197
CCAGATAA	0.11
GGCATTTA	-0.164
ATACCCTG	0.0199

Sequence	PBM E-score
AGAATAAG	-0.138
GCCATCTA	-0.0922
CCTGTAGA	-0.075
AGATCAAA	-0.105
CTAAGCCA	-0.0787
CTGAGTAA	0.153
ATAATAAC	-0.00725
ACTCCACG	-0.104
AAATGAAG	0.0729
AACGCGCA	-0.0323
ACTGCTGA	0.131
ACAAACCA	0.0102
AGTTGGAC	-0.121
CTCCTTGA	-0.0344
ACCAAGCT	0.105
CATGTTGG	-0.044
GGCAATCA	0.0834
CACCAGGG	0.0715
ACGAGTAT	0.126
AGTCCCAG	-0.0249
AAAAAATT	-0.248
CCGTTAAC	-0.21
GGGCCGCA	-0.0185
